The list shows a part of the results. The full chains were built here from the parent and the listed change. Inactive controls read about 0.05.
B1: TEV protease; numbered along this chain (parent)
chain: MGESLFKGPRDYNPISSSICHLTNESDGHTTSLYGIGFGPFIITNKHLFRRNNGTLVVQSLHGVFKVKDTTTLQQHLVDGRDMIIIRMPKDFPPFPQKLKFREPQREERICLVTTNFQTKSMSSMVSDTSCTFPSGDGIFWKHWIQTKDGQCGSPLVSTRDGFIVGIHSASNFTNTNNYFTSVPKNFMELLTNQEAQQWVSGWRLNADSVLWGGHKVFMVKPEEPFQPVKEATQL

Variants of: B1
Experiment: raw area under fraction-flipped curve 0-4 h after induction (AUC4h, not background-subtracted), DNA-recorder readout of cleavage of the substrate (dimensionless); higher = more cleavage of the substrate by the protease variant
Conditions: temperature: 34 °C; time window: 0-4 h after rhamnose induction
Method: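 In vivo DNA recorder in E. coli TOP10(DE3) ΔrhaA at 34 °C. Each TEVp single-site mutant (parent TEVp 0) is paired with a single-site variant of the 7-mer TEVs (canonical ENLYFQ|S). The substrate sits between flexible linkers in a Bxb1-sfGFP-TEVs-SsrA fusion, so cleavage stabilises Bxb1 and speeds flipping of a recombination array, read by NGS. The value is the raw area under the fraction-flipped curve over 0-4 h after rhamnose induction (AUC4h), with ≥20 reads per time point. It is not background-subtracted; inactive controls average about 0.047.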
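Further: Bxb1 expression induced with 0.2% (w/v) L-rhamnose at OD600 near 0.5, cultures sampled hourly, flipped fraction per protease–substrate barcode pair counted by paired-end Illumina sequencing.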

Variant	area with substrate ENLYAQS	area with substrate ENLYCQS	area with substrate ENLYDQS	area with substrate ENLYEQS	area with substrate ENLYGQS	area with substrate ENLYHQS	area with substrate ENLYIQS	area with substrate ENLYKQS	area with substrate ENLYMQS	area with substrate ENLYNQS	area with substrate ENLYPQS	area with substrate ENLYQQS	area with substrate ENLYSQS	area with substrate ENLYTQS	area with substrate ENLYVQS	area with substrate ENLYWQS	area with substrate ENLYYQS	area with substrate ENLYRQS	area with substrate ENLYLQS
MGESLFKGPRDYNPISSSICHLTNESDGHTTSLYGIGFGPFIITNKLLFRRNNGTLVVQSLHGVFKVKDTTTLQQHLVDGRDMIIIRMPKDFPPFPQKLKFREPQREERICLVTTNFQTKSMSSMVSDTSCTFPSGDGIFWKHWIQTKDGQCGSPLVSTRDGFIVGIHSASNFTNTNNYFTSVPKNFMELLTNQEAQQWVSGWRLNADSVLWGGHKVFMVKPEEPFQPVKEATQL [H47L]	0.0601	0.0537	0.0676	0.0664	0.0465	0.0572	0.0535	0.0588	0.0665	0.0582	0.0615	0.065	0.0662	0.0469	0.0661	0.0614	0.0678	–	–
MGESLFKGPRDYNPISSSICHLTNESDGHTTSLYGIGFGPFIITNKFLFRRNNGTLVVQSLHGVFKVKDTTTLQQHLVDGRDMIIIRMPKDFPPFPQKLKFREPQREERICLVTTNFQTKSMSSMVSDTSCTFPSGDGIFWKHWIQTKDGQCGSPLVSTRDGFIVGIHSASNFTNTNNYFTSVPKNFMELLTNQEAQQWVSGWRLNADSVLWGGHKVFMVKPEEPFQPVKEATQL [H47F]	0.0357	0.075	0.0666	0.0578	0.0599	0.0551	0.058	0.0293	0.0605	0.0555	0.0757	0.0507	0.065	0.0647	0.0699	0.0648	–	0.068	–
MGESLFKGPRDYNPISSSICHLTNESDGHTTSLYGIGFGPWIITNKHLFRRNNGTLVVQSLHGVFKVKDTTTLQQHLVDGRDMIIIRMPKDFPPFPQKLKFREPQREERICLVTTNFQTKSMSSMVSDTSCTFPSGDGIFWKHWIQTKDGQCGSPLVSTRDGFIVGIHSASNFTNTNNYFTSVPKNFMELLTNQEAQQWVSGWRLNADSVLWGGHKVFMVKPEEPFQPVKEATQL [F41W]	0.0756	0.0773	0.0459	0.0653	–	0.0692	–	0.0512	0.0777	0.0773	0.0562	0.059	0.0676	0.0603	–	0.0522	0.0481	0.0356	0.0849
MGESLFKGPRDYNPISSSICHLTNESDGHTTSLYGIGFGPFIIWNKHLFRRNNGTLVVQSLHGVFKVKDTTTLQQHLVDGRDMIIIRMPKDFPPFPQKLKFREPQREERICLVTTNFQTKSMSSMVSDTSCTFPSGDGIFWKHWIQTKDGQCGSPLVSTRDGFIVGIHSASNFTNTNNYFTSVPKNFMELLTNQEAQQWVSGWRLNADSVLWGGHKVFMVKPEEPFQPVKEATQL [T44W]	0.0447	0.0504	0.0657	0.05	0.0528	0.0467	0.0426	–	0.0292	0.0439	0.061	0.0796	0.0386	0.0393	0.0465	0.0471	0.0469	0.0657	0.0497
MGESLFKGPRDYNPISSSICHLTNESDGHTTSLYGIGFGPFIITNKHLFRRNNHTLVVQSLHGVFKVKDTTTLQQHLVDGRDMIIIRMPKDFPPFPQKLKFREPQREERICLVTTNFQTKSMSSMVSDTSCTFPSGDGIFWKHWIQTKDGQCGSPLVSTRDGFIVGIHSASNFTNTNNYFTSVPKNFMELLTNQEAQQWVSGWRLNADSVLWGGHKVFMVKPEEPFQPVKEATQL [G54H]	0.106	0.0747	0.0601	0.0639	0.0567	0.0646	0.0529	0.0606	0.0628	0.0617	–	0.0598	0.0655	0.0619	0.068	0.0573	0.0551	0.0679	0.0527
MGESLFKGPRDYNPISSSICHLTNESDGHTTSLYGIGFGPFIITVKHLFRRNNGTLVVQSLHGVFKVKDTTTLQQHLVDGRDMIIIRMPKDFPPFPQKLKFREPQREERICLVTTNFQTKSMSSMVSDTSCTFPSGDGIFWKHWIQTKDGQCGSPLVSTRDGFIVGIHSASNFTNTNNYFTSVPKNFMELLTNQEAQQWVSGWRLNADSVLWGGHKVFMVKPEEPFQPVKEATQL [N45V]	0.0658	–	0.0595	0.0599	0.0504	0.0576	0.0587	0.0583	0.0643	0.0605	0.0662	0.0601	0.0673	0.0627	0.0643	0.0565	0.0526	0.063	0.0851
MGESLFKGPRDYNPISSSICHLTNESDGHTTSLYGIPFGPFIITNKHLFRRNNGTLVVQSLHGVFKVKDTTTLQQHLVDGRDMIIIRMPKDFPPFPQKLKFREPQREERICLVTTNFQTKSMSSMVSDTSCTFPSGDGIFWKHWIQTKDGQCGSPLVSTRDGFIVGIHSASNFTNTNNYFTSVPKNFMELLTNQEAQQWVSGWRLNADSVLWGGHKVFMVKPEEPFQPVKEATQL [G37P]	0.052	–	0.0322	0.05	–	–	0.0536	0.0223	0.0529	0.0605	0.0522	0.0474	–	0.0349	0.0629	–	–	0.0731	–
MGESLFKGPRDYNPISSSICHLTNESDGHTTSLYGIGFWPFIITNKHLFRRNNGTLVVQSLHGVFKVKDTTTLQQHLVDGRDMIIIRMPKDFPPFPQKLKFREPQREERICLVTTNFQTKSMSSMVSDTSCTFPSGDGIFWKHWIQTKDGQCGSPLVSTRDGFIVGIHSASNFTNTNNYFTSVPKNFMELLTNQEAQQWVSGWRLNADSVLWGGHKVFMVKPEEPFQPVKEATQL [G39W]	0.0445	–	–	0.043	0.0425	0.0425	–	0.0613	0.0371	0.0495	0.045	0.0574	–	0.0158	–	0.0511	–	0.0487	–
MGESLFKGPRDYNPISSSICHLTNESDGHTTSLYGIGFQPFIITNKHLFRRNNGTLVVQSLHGVFKVKDTTTLQQHLVDGRDMIIIRMPKDFPPFPQKLKFREPQREERICLVTTNFQTKSMSSMVSDTSCTFPSGDGIFWKHWIQTKDGQCGSPLVSTRDGFIVGIHSASNFTNTNNYFTSVPKNFMELLTNQEAQQWVSGWRLNADSVLWGGHKVFMVKPEEPFQPVKEATQL [G39Q]	0.0303	–	0.0286	0.0445	0.0241	0.0457	0.0428	0.0537	0.0355	0.0411	–	0.0379	0.0473	–	0.0602	0.0409	0.0242	0.0484	–

Reference: the supplement of paper PMC12217912
